Drawing on PubChem BioAssay AID485344 (National Center for Advancing Translational Sciences (NCATS), 2010), this text covers inhibition for 62 molecules.

In all, about 340,000 compounds went through this assay and about 6,900 (2%) were called active. Rule as the data show it: active = inhibition above about 30%; inactive = below that, where a call was filed. The list shows a part of the results, in another mix than the full data. The source gives no active or inactive call for entries shown without one.

The assay addresses D(2) dopamine receptor (Homo sapiens) (UniProt P14416). Put plainly: HTS Assay for Allosteric Antagonists of the Human D2 Dopamine Receptor: Primary Screen for Antagonists. Also: 0% is about no effect. The settings on record: HEK293 TREx D2 cells, calcium flux, dopamine EC80; at 10 µM; stronger effect = higher value. Put shortly: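 Antagonism is scored as inhibition of an EC80 dopamine-evoked calcium signal in a force-coupled, tetracycline-inducible HEK293 T-REx D2 line, with compound present 180 s before agonist.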
Sequence of UniProt P14416 (P14416 whole entry, looked up): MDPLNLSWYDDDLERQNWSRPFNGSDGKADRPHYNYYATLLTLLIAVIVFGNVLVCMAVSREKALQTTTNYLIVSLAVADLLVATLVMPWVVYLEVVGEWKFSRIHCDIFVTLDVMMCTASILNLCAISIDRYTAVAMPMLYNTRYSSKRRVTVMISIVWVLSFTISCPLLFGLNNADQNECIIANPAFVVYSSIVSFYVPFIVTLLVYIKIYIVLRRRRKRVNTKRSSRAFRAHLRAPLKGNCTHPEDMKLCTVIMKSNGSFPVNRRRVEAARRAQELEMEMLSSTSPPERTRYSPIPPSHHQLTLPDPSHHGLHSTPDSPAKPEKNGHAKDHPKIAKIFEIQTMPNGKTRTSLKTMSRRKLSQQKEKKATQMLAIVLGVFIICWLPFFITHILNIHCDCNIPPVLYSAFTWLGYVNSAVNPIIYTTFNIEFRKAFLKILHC
For orientation: Calcium assays in cells follow changes in intracellular calcium, usually with a dye or a luminescent sensor.
Take `Cc1cc(=O)n(CC(=O)NC(C)c2ccccc2)c2c1c(C)nn2C` (configuration not stated): the inhibition was -3.53%.

`CCOc1cc2[nH]c(=S)n(Cc3ccc(C(=O)NCCN(CC)CC)cc3)c(=O)c2cc1OCC`: the inhibition was active: 49.7%.

With `CCC1ON(c2ccccc2)C2c3nc4ccccc4n3CC12` (configuration not stated), the inhibition was active: 36.2%.

Take `Cc1cccc(CN2C(=O)c3ccccc3Sc3ccc(C(=O)NCc4cccs4)cc32)c1`: the inhibition was -9.47%.

Consider `CCOC(=O)N1CCc2c(sc3c2c(=O)n(-c2ccc(F)cc2)c(=O)n3CC(=O)c2ccccc2)C1`, for which the inhibition is -22.1%.

Take `O=C(NCCc1ccccc1)C1COc2ccccc2C1` (configuration not stated): the inhibition was 19.1%.

With `CC(C)c1ccc(S(=O)(=O)c2cnc(SCC(=O)Nc3ccc(F)cc3F)nc2N)cc1`, the inhibition worked out at 2.53%.

Take `Cc1ccc(-n2nc3c(N4CCC(C(=O)NCCC(C)C)CC4)nnc(C)c3c2C)cc1`: the inhibition was 2.94%.

For the molecule `O=C(CN1CCN(c2ccc(Cl)cc2)CC1)Nc1ccc(F)c(F)c1`, the inhibition is -13.2%.

As for `O=C(Cn1nnnc1-c1ccccc1F)Nc1ccc(F)c(F)c1`, the inhibition was -7.77%.

`CCC(=O)N1c2ccccc2CC1C(=O)NCCc1ccc(Cl)cc1` (configuration not stated): the inhibition was found to be 7.59%.

Consider `CCOc1ccccc1NC(=O)c1nnn(CC(=O)Nc2ccccc2CC)c1N`, for which the inhibition turned out to be 19.8%.

As to `COc1ccc(NC(=O)c2[nH]nc3c2CSc2ccccc2-3)c(OC)c1`, the inhibition is -7.17%.

In the case of `CCC(Cc1ccccc1)NC(=O)Cn1ncc2c3ccccc3n(Cc3ccc(F)cc3)c2c1=O` (configuration not stated), the inhibition was -12.2%.

With `CCn1cc2nc(SCc3cccc(F)c3)n(CCc3ccccc3)c(=O)c2n1`, the inhibition is -7.87%.

On to `COc1ccc(Cl)cc1NC(=O)CCCS(=O)(=O)c1nc(-c2ccc(OC)c(OC)c2)cc(C(F)(F)F)n1`, for which the inhibition is -1.48%.

Regarding `O=C(O)CCn1ccc2cc(S(=O)(=O)N3CCCCC3)ccc21`, the inhibition was -1.3%.

Take `O=C(NCc1ccccc1Cl)C1CCN(c2ncnc3c2nc2n3CCCCC2)CC1`: the inhibition amounted to 13.8%.

Regarding `COc1ccc(-c2csc(-c3c(N)c(C(=O)c4ccccc4)n4ccccc34)n2)cc1`, the inhibition worked out at 4.11%.

In the case of `Cc1cc(C)n2c(Nc3cccc(C(F)(F)F)c3)c(-c3ccsc3)nc2n1`, the inhibition is 10.4%.

`Cc1nnc(NC(=O)CSCc2cc(=O)c3ccc(C)c(C)c3[nH]2)s1`: the inhibition is -1.45%.

As to `CC1CCN(S(=O)(=O)c2cn(CC(=O)Nc3ccc(F)cc3)c(=O)c3ccccc23)CC1`, the inhibition was determined as 6.06%.

As to `CC(C)CCNC(=O)c1ccc2c(c1)N(C)C(=O)c1ccccc1S2`, the inhibition is active: 47.4%.

Regarding `CC(C)c1nn2c(=O)cc(COC(=O)c3ccccc3Cl)nc2s1`, the inhibition stood at 9.18%.

Regarding `CCOc1cc2[nH]c(=O)n(CCCCCC(=O)NC(C)CC)c(=O)c2cc1OCC` (configuration not stated), the inhibition is -6.14%.

As to `COc1ccc(N2CCN(Cc3nc(-c4ccc(C)cc4)no3)CC2)cc1`, the inhibition is -10.1%.

Consider `O=C(CN1CCN(c2ccccc2)CC1)Nc1ccc(OCc2ccccc2)cc1`, for which the inhibition is active: 55.5%.

Consider `CCCOc1cccc(C2c3c(oc4cc(C)c(C)cc4c3=O)C(=O)N2CCCN2CCOCC2)c1` (configuration not stated), for which the inhibition was -9.79%.

For the molecule `CSc1cccc(NC(=O)CN(C)S(=O)(=O)c2ccc3c(c2)CCCN3C(C)=O)c1`, the inhibition stood at 17.1%.

With `CCC(=O)N1CCc2cc(S(=O)(=O)NC(C(=O)NCCc3ccc(C)cc3)C(C)C)ccc21` (configuration not stated), the inhibition turned out to be 0.435%.

Regarding `Cc1ccc(-c2n[nH]c3c2C(c2cccs2)N(c2ccc(Cl)cc2)C3=O)cc1` (configuration not stated), the inhibition came out at 16%.

As to `Cc1ccc(C)c(C(=O)CSc2nc3cc(C(=O)NC4CCCC4)ccc3c(=O)n2CC2CCCO2)c1` (configuration not stated), the inhibition is -4.34%.

Regarding `COCc1cc(C)n(CC(=O)Nc2cccc(C(C)=O)c2)c(=O)c1C#N`, the inhibition turned out to be 11.2%.

For `Cc1ccc(-c2nc3cc(NC(=O)c4cc(Br)ccc4Cl)ccc3o2)cc1`, the inhibition was -2.45%.

For the molecule `CCOc1ccccc1C(=O)N1CCCCC1CCN1CCOCC1` (configuration not stated), the inhibition was -3.28%.

Turning to `COc1cc(CC2COC(c3ccc(O)c(OC)c3)C2COC(C)=O)ccc1O` (configuration not stated), the inhibition was active: 44.7%.

`O=C1COc2ccc(-c3cc(-c4ccc(F)cc4)c4c(n3)-c3ccccc3OC4)cc2N1`: the inhibition stood at 6.16%.

`CCOC(=O)C1(CC2CCCCO2)CCN(Cc2nc(-c3cccs3)oc2C)CC1` (configuration not stated): the inhibition is active: 69.3%.

`Cc1ccc(C(=O)CC2(O)C(=O)N(Cc3ccccc3)c3ccc(Br)cc32)cc1` (configuration not stated): the inhibition was -14.5%.

Turning to `CCN(C(=O)c1ccc2c(=O)n3c(nc2c1)CCCCC3)c1cc(C)ccc1C`, the inhibition was determined as 2.33%.

As for `CSc1nn(Cc2ccc(F)cc2)c(N)c1S(=O)(=O)c1ccc(Cl)cc1`, the inhibition is -0.216%.

Regarding `CCOc1ccc(S(=O)(=O)N2CCN(c3ccc(C)cc3C)CC2)c2ccccc12`, the inhibition turned out to be 6.25%.

As to `COc1ccc(N2C(=O)CCC2=O)cc1`, the inhibition was active: 34.1%.

In the case of `CCCN(CCC)CCCNC(=O)C1CCN(S(=O)(=O)c2cccc3nsnc23)CC1`, the inhibition was determined as 10.6%.

For the molecule `COc1cccc(CSc2nc(-c3ccccc3OC)nc3c2Cc2c(CO)cnc(C)c2O3)c1`, the inhibition turned out to be 4.92%.

Consider `Cc1[nH]c2ccccc2c1C(=O)C(=O)NC1CC(=O)N(c2ccccc2)C1` (configuration not stated), for which the inhibition was determined as 22.8%.

Turning to `CCOc1ccccc1CNC(=O)CCn1cccn1`, the inhibition is -0.0411%.

For the molecule `COC(=O)c1ccc(NC(=O)CN(c2cccc(C(F)(F)F)c2)S(C)(=O)=O)cc1`, the inhibition is -0.407%.

Take `Cc1cccc(-n2c(SCC(=O)Nc3ccccc3C)nc3c(oc4ccccc43)c2=O)c1`: the inhibition is -11.6%.

In the case of `CCc1ccccc1N1C(=O)N(C)c2ccccc2S1(=O)=O`, the inhibition came out at 13.9%.

For the molecule `CCCCOC(=O)c1ccc(NC(=O)/C(C#N)=C/c2ccc(C)o2)cc1`, the inhibition is -8.18%.

On to `O=C(COC(=O)c1cc(-c2cccs2)nn1-c1ccccc1)Nc1ccc(Cl)c([N+](=O)[O-])c1`, for which the inhibition is active: 43.9%.

Consider `Cc1ccc(NC(=O)COCc2cc(-c3cccs3)on2)cc1Cl`, for which the inhibition worked out at 12.8%.

Regarding `CCCCNS(=O)(=O)c1ccc2nc(-c3cccnc3)cc(C(=O)NCCCOCC)c2c1`, the inhibition was -7.91%.

In the case of `CCS(=O)(=O)N1CC(=O)N(c2ccc(C)c(C)c2)C(C)(C(=O)NC2CCCCCC2)C1` (configuration not stated), the inhibition was -16.4%.

As to `CCCN(C(=O)c1cn(CC(C)C)c(=O)c2cc(OC)c(OC)cc12)c1cccc(C)c1`, the inhibition is 1.46%.

For `COc1ccc(N2CC(NC(=O)Cc3cccs3)CC2=O)cc1OC` (configuration not stated), the inhibition amounted to 17.1%.

Take `Cc1cc(S(=O)(=O)Nc2ccc3[nH]c(=O)sc3c2)ccc1F`: the inhibition was -6.95%.

Consider `CCOc1cc(-c2nnc(SCC(=O)NCCCOC)nc2-c2ccc(OC)c(OCC)c2)ccc1OC`, for which the inhibition was found to be 14.7%.

With `COc1ccc(NC(=O)C(NS(=O)(=O)c2cccc3nsnc23)c2ccccc2)cc1` (configuration not stated), the inhibition is -13.2%.

For `CCC(=O)Nc1nnc(S(=O)(=O)N2CCCCCC2)s1`, the inhibition came to 2.76%.

Regarding `Cn1cc(S(=O)(=O)N2CCCCC2)cc1C(=O)NCc1ccc(Cl)cc1`, the inhibition was -25.4%.

By inhibition is commonly meant the change of the read-out against control, counted positive when it falls.
